# Results reported in the supplement of paper PMC8728848.
# The other results are listed elsewhere or left out.
# Columns and labels:
# Assay in all cases: glycan array binding signal (z-score within array); higher = stronger binding
# Settings in all cases: glycan notation: IUPAC condensed, linker removed
# Glc(b1-6)Glc = target: Glc(b1-6)Glc
# Summary of the method: (§1)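 Glycan array data were curated from 3228 arrays in the Consortium for Functional Glycomics database and kept only where the protein sequence was available. Glycan names were converted to IUPAC-condensed notation, and columns mapping to the same glycan were averaged. The binding signal is a within-array Z-score, averaged across arrays of the same protein sequence at different concentrations or buffers and across linkers. Negative Z-scores can be read as non-binding.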
# GlcA(b1-3)Gal = target: GlcA(b1-3)Gal
# Summary of the method: as §1
# GlcA(b1-3)GlcNAc = target: GlcA(b1-3)GlcNAc
# Summary of the method: as §1
# GlcA(b1-6)Gal = target: GlcA(b1-6)Gal
# Summary of the method: as §1
# [1] = target: GlcA3S(b1-3)Gal(b1-4)GlcNAc(b1-2)Man
# Summary of the method: as §1
# [2] = target: GlcA3S(b1-3)Gal(b1-4)GlcNAc(b1-3)Gal(b1-4)Glc
# Summary of the method: as §1
# [3] = target: GlcNAc(a1-3)Gal(b1-4)GlcNAc
# Summary of the method: as §1
# [4] = target: GlcNAc(a1-4)Gal(b1-3)GlcNAc
# Summary of the method: as §1
# [5] = target: GlcNAc(a1-4)Gal(b1-4)GalNAc
# Summary of the method: as §1
# [6] = target: GlcNAc(a1-4)Gal(b1-4)GlcNAc
# Summary of the method: as §1
# [7] = target: GlcNAc(a1-4)Gal(b1-4)GlcNAc(b1-3)Gal(b1-4)Glc
# Summary of the method: as §1
# [8] = target: GlcNAc(a1-4)Gal(b1-4)GlcNAc(b1-3)Gal(b1-4)GlcNAc
# Summary of the method: as §1
# [9] = target: GlcNAc(a1-4)Gal(b1-4)GlcNAc(b1-3)Gal(b1-4)GlcNAc(b1-3)Gal(b1-4)GlcNAc
# Summary of the method: as §1
# [10] = target: GlcNAc(a1-4)Gal(b1-4)GlcNAc(b1-3)Gal(b1-4)[Fuc(a1-3)]GlcNAc(b1-3)Gal(b1-4)[Fuc(a1-3)]GlcNAc
# Summary of the method: as §1
# [11] = target: GlcNAc(a1-6)Gal(b1-4)GlcNAc
# Summary of the method: as §1
# [12] = target: GlcNAc(b1-2)Gal(b1-3)GalNAc
# Summary of the method: as §1
# [13] = target: GlcNAc(b1-2)Man(a1-3)[GlcNAc(b1-2)Man(a1-6)]Man(b1-4)GlcNAc(b1-4)GlcNAc
# Summary of the method: as §1
# [14] = target: GlcNAc(b1-2)Man(a1-3)[GlcNAc(b1-2)Man(a1-6)]Man(b1-4)GlcNAc(b1-4)[Fuc(a1-6)]GlcNAc
# Summary of the method: as §1
# [15] = target: GlcNAc(b1-2)Man(a1-3)[GlcNAc(b1-4)][GlcNAc(b1-2)Man(a1-6)]Man(b1-4)GlcNAc(b1-4)GlcNAc
# Summary of the method: as §1
# [16] = target: GlcNAc(b1-2)Man(a1-3)[GlcNAc(b1-4)][GlcNAc(b1-2)Man(a1-6)]Man(b1-4)GlcNAc(b1-4)[Fuc(a1-6)]GlcNAc
# Summary of the method: as §1
# [17] = target: GlcNAc(b1-2)[GlcNAc(b1-4)]Man(a1-3)[GlcNAc(b1-2)Man(a1-6)]Man(b1-4)GlcNAc(b1-4)GlcNAc
# Summary of the method: as §1
# [18] = target: GlcNAc(b1-2)[GlcNAc(b1-4)]Man(a1-3)[GlcNAc(b1-4)][GlcNAc(b1-2)Man(a1-6)]Man(b1-4)GlcNAc(b1-4)GlcNAc
# Summary of the method: as §1
# [19] = target: GlcNAc(b1-2)[GlcNAc(b1-4)]Man(a1-3)[GlcNAc(b1-4)][GlcNAc(b1-2)[GlcNAc(b1-6)]Man(a1-6)]Man(b1-4)GlcNAc(b1-4)GlcNAc
# Summary of the method: as §1
# [20] = target: GlcNAc(b1-2)[GlcNAc(b1-4)]Man(a1-3)[GlcNAc(b1-4)][GlcNAc(b1-2)[GlcNAc(b1-6)]Man(a1-6)]Man(b1-4)GlcNAc(b1-4)[Fuc(a1-6)]GlcNAc
# Summary of the method: as §1
# [21] = target: GlcNAc(b1-2)[GlcNAc(b1-6)]Man(a1-6)[GlcNAc(b1-2)Man(a1-3)]Man(b1-4)GlcNAc(b1-4)GlcNAc
# Summary of the method: as §1
# [22] = target: GlcNAc(b1-2)[GlcNAc(b1-6)]Man(a1-6)[GlcNAc(b1-2)Man(a1-3)]Man(b1-4)GlcNAc(b1-4)[Fuc(a1-6)]GlcNAc
# Summary of the method: as §1
# [23] = target: GlcNAc(b1-2)[GlcNAc(b1-6)]Man(a1-6)[GlcNAc(b1-4)][GlcNAc(b1-2)Man(a1-3)]Man(b1-4)GlcNAc(b1-4)GlcNAc
# Summary of the method: as §1
# GlcNAc(b1-3)Fuc = target: GlcNAc(b1-3)Fuc
# Summary of the method: as §1
# GlcNAc(b1-3)Gal = target: GlcNAc(b1-3)Gal
# Summary of the method: as §1
# [24] = target: GlcNAc(b1-3)Gal(b1-3)GalNAc
# Summary of the method: as §1
# GlcNAc(b1-3)Gal(b1-4)Glc = target: GlcNAc(b1-3)Gal(b1-4)Glc
# Summary of the method: as §1
# [25] = target: GlcNAc(b1-3)Gal(b1-4)GlcNAc
# Summary of the method: as §1
# [26] = target: GlcNAc(b1-3)Gal(b1-4)GlcNAc(b1-2)Man(a1-3)[GlcNAc(b1-3)Gal(b1-4)GlcNAc(b1-2)Man(a1-6)]Man(b1-4)GlcNAc(b1-4)GlcNAc
# Summary of the method: as §1
# [27] = target: GlcNAc(b1-3)Gal(b1-4)GlcNAc(b1-2)Man(a1-3)[GlcNAc(b1-3)Gal(b1-4)GlcNAc(b1-2)Man(a1-6)]Man(b1-4)GlcNAc(b1-4)[Fuc(a1-6)]GlcNAc
# Summary of the method: as §1
# [28] = target: GlcNAc(b1-3)Gal(b1-4)GlcNAc(b1-2)[GlcNAc(b1-3)Gal(b1-4)GlcNAc(b1-6)]Man(a1-6)[GlcNAc(b1-3)Gal(b1-4)GlcNAc(b1-2)Man(a1-3)]Man(b1-4)GlcNAc(b1-4)GlcNAc
# Summary of the method: as §1
# [29] = target: GlcNAc(b1-3)Gal(b1-4)GlcNAc(b1-3)Gal(b1-4)GlcNAc
# Summary of the method: as §1
# [30] = target: GlcNAc(b1-3)Gal(b1-4)GlcNAc(b1-3)Gal(b1-4)GlcNAc(b1-2)Man(a1-3)[GlcNAc(b1-3)Gal(b1-4)GlcNAc(b1-3)Gal(b1-4)GlcNAc(b1-2)Man(a1-6)]Man(b1-4)GlcNAc(b1-4)GlcNAc
# Summary of the method: as §1
# [31] = target: GlcNAc(b1-3)Gal(b1-4)GlcNAc(b1-3)Gal(b1-4)GlcNAc(b1-2)Man(a1-3)[GlcNAc(b1-3)Gal(b1-4)GlcNAc(b1-3)Gal(b1-4)GlcNAc(b1-2)Man(a1-6)]Man(b1-4)GlcNAc(b1-4)[Fuc(a1-6)]GlcNAc
# Summary of the method: as §1
# [32] = target: GlcNAc(b1-3)Gal(b1-4)GlcNAc(b1-3)Gal(b1-4)GlcNAc(b1-2)[GlcNAc(b1-3)Gal(b1-4)GlcNAc(b1-3)Gal(b1-4)GlcNAc(b1-6)]Man(a1-6)[GlcNAc(b1-3)Gal(b1-4)GlcNAc(b1-3)Gal(b1-4)GlcNAc(b1-2)Man(a1-3)]Man(b1-4)GlcNAc(b1-4)[Fuc(a1-6)]GlcNAc
# Summary of the method: as §1
# [33] = target: GlcNAc(b1-3)Gal(b1-4)GlcNAc(b1-3)Gal(b1-4)GlcNAc(b1-3)Gal(b1-4)GlcNAc(b1-2)Man(a1-3)[GlcNAc(b1-3)Gal(b1-4)GlcNAc(b1-3)Gal(b1-4)GlcNAc(b1-3)Gal(b1-4)GlcNAc(b1-2)Man(a1-6)]Man(b1-4)GlcNAc(b1-4)GlcNAc
# Summary of the method: as §1
# [34] = target: GlcNAc(b1-3)Gal(b1-4)GlcNAc(b1-3)Gal(b1-4)GlcNAc(b1-3)Gal(b1-4)GlcNAc(b1-2)Man(a1-3)[GlcNAc(b1-3)Gal(b1-4)GlcNAc(b1-3)Gal(b1-4)GlcNAc(b1-3)Gal(b1-4)GlcNAc(b1-2)Man(a1-6)]Man(b1-4)GlcNAc(b1-4)[Fuc(a1-6)]GlcNAc
# Summary of the method: as §1
# [35] = target: GlcNAc(b1-3)Gal(b1-4)GlcNAc(b1-3)Gal(b1-4)GlcNAc(b1-3)Gal(b1-4)GlcNAc(b1-2)[GlcNAc(b1-3)Gal(b1-4)GlcNAc(b1-3)Gal(b1-4)GlcNAc(b1-3)Gal(b1-4)GlcNAc(b1-6)]Man(a1-6)[GlcNAc(b1-3)Gal(b1-4)GlcNAc(b1-3)Gal(b1-4)GlcNAc(b1-3)Gal(b1-4)GlcNAc(b1-2)Man(a1-3)]Man(b1-4)GlcNAc(b1-4)[Fuc(a1-6)]GlcNAc
# Summary of the method: as §1
# [36] = target: GlcNAc(b1-3)Gal(b1-4)GlcNAc(b1-3)Gal(b1-4)GlcNAc(b1-3)Gal(b1-4)GlcNAc(b1-3)Gal(b1-4)GlcNAc(b1-2)Man(a1-3)[GlcNAc(b1-3)Gal(b1-4)GlcNAc(b1-3)Gal(b1-4)GlcNAc(b1-3)Gal(b1-4)GlcNAc(b1-3)Gal(b1-4)GlcNAc(b1-2)Man(a1-6)]Man(b1-4)GlcNAc(b1-4)GlcNAc
# Summary of the method: as §1
# [37] = target: GlcNAc(b1-3)Gal(b1-4)GlcNAc(b1-3)Gal(b1-4)GlcNAc(b1-3)Gal(b1-4)GlcNAc(b1-3)Gal(b1-4)GlcNAc(b1-2)Man(a1-3)[GlcNAc(b1-3)Gal(b1-4)GlcNAc(b1-3)Gal(b1-4)GlcNAc(b1-3)Gal(b1-4)GlcNAc(b1-3)Gal(b1-4)GlcNAc(b1-2)Man(a1-6)]Man(b1-4)GlcNAc(b1-4)[Fuc(a1-6)]GlcNAc
# Summary of the method: as §1
# [38] = target: GlcNAc(b1-3)Gal(b1-4)GlcNAc(b1-3)Gal(b1-4)GlcNAc(b1-3)Gal(b1-4)GlcNAc(b1-3)Gal(b1-4)GlcNAc(b1-2)[GlcNAc(b1-3)Gal(b1-4)GlcNAc(b1-3)Gal(b1-4)GlcNAc(b1-3)Gal(b1-4)GlcNAc(b1-3)Gal(b1-4)GlcNAc(b1-6)]Man(a1-6)[GlcNAc(b1-3)Gal(b1-4)GlcNAc(b1-3)Gal(b1-4)GlcNAc(b1-3)Gal(b1-4)GlcNAc(b1-3)Gal(b1-4)GlcNAc(b1-2)Man(a1-3)]Man(b1-4)GlcNAc(b1-4)[Fuc(a1-6)]GlcNAc
# Summary of the method: as §1
binder,measurement,setting,value
RBMC2 (Vibrio cholerae) (protein) KISVRSGFAIDAIGASASTLVGGTGGNLNAAVNVKDIKAIDLTWGKYYWGGYHLLALDFRMSNGSVISMGSKNYAYSKQTERFTVPAGSRIKGIKAWTAGWLLDGVQFELA,glycan array binding signal (z-score),Glc(b1-6)Glc,-0.449
same,glycan array binding signal (z-score),GlcA(b1-3)Gal,-0.199
same,glycan array binding signal (z-score),GlcA(b1-3)GlcNAc,0.027
same,glycan array binding signal (z-score),GlcA(b1-6)Gal,-0.221
same,glycan array binding signal (z-score),[1],-0.26
same,glycan array binding signal (z-score),[2],-0.205
same,glycan array binding signal (z-score),[3],-0.412
same,glycan array binding signal (z-score),[4],-0.372
same,glycan array binding signal (z-score),[5],-0.076
same,glycan array binding signal (z-score),[6],-0.071
same,glycan array binding signal (z-score),[7],-0.349
same,glycan array binding signal (z-score),[8],-0.281
same,glycan array binding signal (z-score),[9],-0.275
same,glycan array binding signal (z-score),[10],-0.211
same,glycan array binding signal (z-score),[11],-0.424
same,glycan array binding signal (z-score),[12],-0.328
same,glycan array binding signal (z-score),[13],3.67
same,glycan array binding signal (z-score),[14],0.835
same,glycan array binding signal (z-score),[15],-0.353
same,glycan array binding signal (z-score),[16],-0.322
same,glycan array binding signal (z-score),[17],1.99
same,glycan array binding signal (z-score),[18],-0.138
same,glycan array binding signal (z-score),[19],-0.378
same,glycan array binding signal (z-score),[20],-0.127
same,glycan array binding signal (z-score),[21],-0.232
same,glycan array binding signal (z-score),[22],-0.178
same,glycan array binding signal (z-score),[23],-0.289
same,glycan array binding signal (z-score),GlcNAc(b1-3)Fuc,-0.299
same,glycan array binding signal (z-score),GlcNAc(b1-3)Gal,-0.338
same,glycan array binding signal (z-score),[24],-0.253
same,glycan array binding signal (z-score),GlcNAc(b1-3)Gal(b1-4)Glc,-0.327
same,glycan array binding signal (z-score),[25],-0.324
same,glycan array binding signal (z-score),[26],2.85
same,glycan array binding signal (z-score),[27],3.51
same,glycan array binding signal (z-score),[28],-0.184
same,glycan array binding signal (z-score),[29],-0.208
same,glycan array binding signal (z-score),[30],0.639
same,glycan array binding signal (z-score),[31],2.85
same,glycan array binding signal (z-score),[32],-0.276
same,glycan array binding signal (z-score),[33],1.99
same,glycan array binding signal (z-score),[34],2.1
same,glycan array binding signal (z-score),[35],-0.196
same,glycan array binding signal (z-score),[36],2.08
same,glycan array binding signal (z-score),[37],1.92
same,glycan array binding signal (z-score),[38],-0.19
